The antibiotic and cytotoxicity screens of Wong et al. (2023)
Some of the results follow.

Assays:
HSkMC = human skeletal muscle cells; assay: cytotoxicity call (relative viability < 0.9); conditions: 10 µM
HepG2 = assay: cytotoxicity call (relative viability < 0.9); conditions: 10 µM
S. aureus RN4220 = assay: growth inhibition call (relative growth <= 0.2); conditions: 50 µM

Row | Structure (SMILES) | cytotoxicity call (HSkMC) | cytotoxicity call (HepG2) | growth inhibition call (S. aureus RN4220)
1 | CN(C)c1cncc(C(=O)O)c1 | inactive | inactive | inactive
2 | Cc1ccc(C(=N)N)n1C | inactive | inactive | inactive
3 | Cc1ccc(S(=O)(=O)Nc2ccc3c(c2)C(=O)N([C@@H](C)CO)C[C@H](C)[C@@H](CN(C)S(=O)(=O)c2ccc(C)cc2)OCCCC[C@@H](C)O3)cc1 | inactive | inactive | inactive
4 | C[C@@H]1CN([C@@H](C)CO)C(=O)c2c(c3ccccc3n2C)-c2ccccc2CO[C@H]1CN(C)Cc1ccc(O)cc1 | inactive | inactive | inactive
5 | C[C@@H]1CCCCO[C@@H](CN(C)S(C)(=O)=O)[C@H](C)CN([C@H](C)CO)C(=O)c2cc(NC(=O)Nc3ccc(C(F)(F)F)cc3)ccc2O1 | inactive | inactive | inactive
6 | COc1ccc(NC(=O)N(C)C[C@H]2OCCCC[C@H](C)Oc3ccc(NC(=O)c4ccncc4)cc3C(=O)N([C@H](C)CO)C[C@@H]2C)cc1 | inactive | inactive | inactive
7 | COc1ccc([Si](C)(C)[C@H]2[C@H](CCO)O[C@@]3(C(=O)N(Cc4cccc(N(C=O)c5ccccc5)c4)c4ccccc43)[C@@H]2C)cc1 | inactive | active | inactive
8 | O=C(O)CCN1C(=O)[C@@H]2[C@@H](C1=O)[C@@H]1C=C[C@@H]2C1 | inactive | inactive | inactive
9 | COc1ccc2c3c(n(c2c1)C)[C@H](CO)N(C[C@]13CN(C1)C(=O)c1ccncc1)C(=O)C1CCCCC1 | inactive | inactive | inactive
10 | C[C@@H]1CN([C@H](C)CO)C(=O)c2c(c3ccccc3n2C)-c2ccccc2CO[C@@H]1CN(C)S(=O)(=O)c1cn(C)cn1 | inactive | inactive | inactive
11 | COc1cccc(CNC(=O)C[C@H]2C=C[C@@H](NC(=O)C3CCOCC3)[C@@H](CO)O2)c1 | inactive | inactive | inactive
12 | COc1ccccc1-c1cccc(-c2nc(C(=O)NCc3ccncc3)cc3c2[C@H](CCO)N([S@@](=O)C(C)(C)C)C3)c1 | active | inactive | inactive
13 | C[C@H](CO)N1C[C@H](C)[C@H](CN(C)Cc2ccc(C(=O)Nc3ccccc3N)cc2)Oc2ccc(NS(=O)(=O)c3ccc(Cl)cc3)cc2CC1=O | inactive | inactive | inactive
14 | Cl.c1ccc(C2CN3CCSC3=N2)cc1 (stereo not drawn) | inactive | inactive | inactive
15 | C[C@@H]1CN([C@H](C)CO)C(=O)Cc2cc(NC(=O)Cc3cn(C)c4ccccc34)ccc2O[C@H]1CN(C)Cc1ccc(C(=O)Nc2ccccc2N)cc1 | inactive | inactive | inactive
16 | CN(C)c1cc(NC(=O)CNC(C)(C)C)c(O)c2c1CC1CC3C(N(C)C)C(O)=C(C(N)=O)C(=O)C3(O)C(O)=C1C2=O (stereo not drawn) | inactive | inactive | inactive
17 | COc1ccc(S(=O)(=O)N(C)C[C@H]2OCCCC[C@H](C)Oc3ccc(NC(=O)Nc4ccccc4)cc3C(=O)N([C@H](C)CO)C[C@H]2C)cc1 | inactive | inactive | inactive
18 | Cn1cnc(S(=O)(=O)N2C[C@H](O)COC[C@@H]3O[C@@H](CC(=O)NCc4cccc(F)c4)CC[C@H]32)c1 | inactive | inactive | inactive
19 | O=C(NO)c1cccc(C(=O)N/N=C/[C@@H](O)[C@H](O)[C@H](O)CO)c1 | inactive | inactive | inactive
20 | C[C@H](CO)N1C[C@H](C)[C@H](CN(C)Cc2ccncc2)OCCCC[C@H](C)Oc2ccc(NC(=O)Nc3ccc(F)cc3)cc2C1=O | inactive | inactive | inactive
21 | CC(C)OC(=O)c1nnc(N)[nH]1 | inactive | inactive | inactive

Row | Structure (SMILES) | cytotoxicity call (HSkMC) | cytotoxicity call (HepG2) | growth inhibition call (S. aureus RN4220)
22 | C[C@@H]1CN([C@H](C)CO)C(=O)c2cc(NC(=O)Nc3cccc4ccccc34)ccc2O[C@@H](C)CCCCO[C@@H]1CN(C)S(=O)(=O)c1ccc(F)cc1 | inactive | inactive | inactive
23 | Cc1noc(C)c1NC(=O)Nc1cccc2c1O[C@@H](CN(C)Cc1ccc(Oc3ccccc3)cc1)[C@@H](C)CN([C@H](C)CO)C2=O | inactive | inactive | inactive
24 | COc1ccc(CN2C[C@@H](C)[C@@H](OC)CN(C)C(=O)c3ccc(NC(=O)c4nc5ccccc5s4)cc3OC[C@H]2C)cc1 | inactive | inactive | inactive
25 | NC(=O)c1ncn([C@@H]2O[C@H](CO)[C@@H](O)[C@H]2O)n1 | inactive | inactive | inactive
26 | C[C@@H]1CN([C@@H](C)CO)C(=O)c2cc(NS(=O)(=O)c3ccc(Cl)cc3)ccc2O[C@@H](C)CCCCO[C@@H]1CN(C)C(=O)c1ccccc1 | inactive | inactive | inactive
27 | CCCn1cnnc1CNC | inactive | inactive | inactive
28 | CN(C)CCCC[C@@H]1NC(=O)[C@@H]2C[C@H](C(=O)NCCCCCNC(=O)CS)[C@H](c3ccc(O)cc3)N2C1=O | inactive | inactive | inactive
29 | C[C@H](CO)N1C[C@H](C)[C@@H](CN(C)Cc2ccc(Oc3ccccc3)cc2)Oc2ccc(NS(=O)(=O)c3cccs3)cc2C1=O | inactive | inactive | inactive
30 | O=C(N/N=C/[C@@H](O)[C@H](O)[C@H](O)CO)c1ccccn1 | inactive | inactive | inactive
31 | C[C@H]1CCCCO[C@H](CN(C)C(=O)Nc2ccc(F)cc2)[C@@H](C)CN([C@@H](C)CO)C(=O)c2cc(NC(=O)Nc3ccccc3)ccc2O1 | inactive | inactive | inactive
32 | C[C@@H]1CCCCO[C@@H](CN(C)Cc2ccc3c(c2)OCO3)[C@H](C)CN([C@@H](C)CO)C(=O)c2cc(NC(=O)Cc3ccccc3)ccc2O1 | inactive | inactive | inactive
33 | Cc1ccc(NC(=N)N=C(N)N)c(C)c1 | inactive | inactive | inactive
34 | CCOC(=O)[C@H]1[C@@H]2C(=O)N3CCC[C@H]3[C@H](O[Si](C(C)C)(C(C)C)C(C)C)[C@H]2C=C2CCN(S(=O)(=O)c3ccc(C)cc3)C[C@H]21 | inactive | inactive | inactive
35 | C[C@@H]1CCCCO[C@H](CN(C)C(=O)C2CCCCC2)[C@H](C)CN([C@H](C)CO)C(=O)c2cc(NC(=O)Cc3ccccc3)ccc2O1 | inactive | inactive | inactive
36 | CC(C)CC#Cc1cnc2c(c1)C(=O)N([C@H](C)CO)C[C@H](C)[C@@H](CN(C)C(=O)CN1CCOCC1)O2 | inactive | inactive | inactive
37 | O=C(C[C@H]1CC[C@@H]2[C@H](COC[C@H](O)CN2C(=O)c2ccccn2)O1)NC1CCC1 | inactive | inactive | inactive
38 | O=C(C[C@H]1C[C@H]2c3cc(NC(=O)C4CCOCC4)ccc3O[C@H]2[C@H](CO)O1)NCc1ccc2c(c1)OCO2 | inactive | inactive | inactive
39 | C[C@H](CO)N1C[C@H](C)[C@H](CN(C)S(=O)(=O)c2ccc(F)cc2)Oc2ccc(NC(=O)Nc3cccc4ccccc34)cc2C1=O | inactive | inactive | inactive
40 | O=c1nc(Nc2ccccc2)cn[nH]1 | inactive | inactive | inactive
41 | O=C(C[C@H]1C[C@H]2c3cc(NS(=O)(=O)c4ccc(F)cc4)ccc3O[C@H]2[C@@H](CO)O1)NCc1cccnc1 | inactive | inactive | inactive
